According to PubChem BioAssay (Tox21):
“And” between values parts separate entries of the source, which are not always exact repeats. Equal values may be shown once. Inconclusive results, whose numbers are uncertain, are shown with a selection of clear calls. Where the call is inconclusive, the potency comes from a doubtful curve fit. The source holds several records for some structures; these can differ, active in one and inactive in another. The source made the active and inactive calls. Calls come from the whole dose curve; as a rule, active = well fitted cell-killing curve with a large enough effect in the repeat runs; inconclusive = weak or mixed curves, or effect the other way; inactive = no such curve, though single readings can be large or run the other way.

assay: qHTS assay to identify small molecule agonists of the RXR signaling pathway - cell viability counter screen (AID 1159529); details: RXR-alpha-bla HEK293T viability, CellTiter-Glo, 16 h; series mostly up to 76.8 µM; note: nearly all actives have a fitted effect of over 50% in size
Summary of the method: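 RXR-alpha-UAS-bla HEK 293T cells in medium with 2% charcoal-stripped FBS were preincubated 5 hr, then exposed to compounds for 16 hr at 37 C. Viability was read as CellTiter-Glo luminescence after 30 min at room temperature.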
Potency is the fitted concentration of half-maximal effect; tags give direction and shape of the fitted curve.

| Structure (SMILES) | Potency |
| --- | --- |
| CCCCC(CC)COC(=O)c1ccc(N(C)C)cc1 (stereo not drawn) | inconclusive: 24.7 µM [cytotoxic, full curve] |
| CN(C)CCCN1c2ccccc2CCc2ccc(Cl)cc21 | active: 38.9 µM and inconclusive: 12 µM [cytotoxic, partial curve] |
| Nc1ccc(Nc2ccccc2)cc1 | inconclusive: 17.4 µM [cytotoxic, partial curve] |
| CCCCCCCO | inconclusive: 17.4 µM [rising, full curve, poor fit] |
| C#C[C@]1(O)CC[C@H]2[C@@H]3CCC4=CC(=O)CC[C@@H]4[C@H]3CC[C@@]21CC | inconclusive: 61.6 µM [cytotoxic, single point] |
| O=C(Nc1ccccc1SSc1ccccc1NC(=O)c1ccccc1)c1ccccc1 | active: 19.6 µM and active: 21.9 µM |
| O=Nc1ccc(Nc2ccccc2)cc1 | inconclusive: 22 µM [cytotoxic] and inconclusive: 21.9 µM [cytotoxic] |
| Cc1ccc(-c2cc(C(F)(F)F)nn2-c2ccc(S(N)(=O)=O)cc2)cc1 | active: 48.8 µM and active: 21.9 µM and inconclusive: 23.9 µM [cytotoxic, partial curve] |
| Nc1ccc2c(c1)C(=O)c1ccccc1C2=O | inconclusive: 12.3 µM [cytotoxic, single point] |
| BrC1CCC(Br)C(Br)CCC(Br)C(Br)CCC1Br (stereo not drawn) | active: 15.4 µM and active: 18.5 µM |
| CC/C(=C(\c1ccccc1)c1ccc(OCCN(C)C)cc1)c1ccccc1 | active: 15.5 µM [middle of 5 runs] |
| COC(=O)C1=C(C)NC(C)=C(C(=O)OC)C1c1ccccc1[N+](=O)[O-] | active: 27.6 µM |
| CCN(CC)C(=S)SSC(=S)N(CC)CC | inconclusive: 9.77 µM [cytotoxic, partial curve, poor fit] |
| COC(=O)c1c(Cl)c(Cl)c(C(=O)OC)c(Cl)c1Cl | inconclusive: 38.9 µM [cytotoxic, partial curve, poor fit] |
| CC1=C(/C=C/C(C)=C/C=C/C(C)=C/C(=O)Nc2ccc(O)cc2)C(C)(C)CCC1 | active: 35.6 µM and active: 12 µM |
| COC(=O)C1=C(C)NC(C)=C(C(=O)OCC(C)C)C1c1ccccc1[N+](=O)[O-] (stereo not drawn) | active: 49 µM |
| Cc1ccc(C(C)(C)C)c(O)c1 | active: 47.4 µM |
| CC(C)(C)NC(=O)[C@H]1CC[C@H]2[C@@H]3CC[C@H]4NC(=O)C=C[C@]4(C)[C@H]3CC[C@]12C | inconclusive: 15.5 µM [cytotoxic, full curve] |
